Laboratory results as given in the RNAGym collection of RNA variant scans (doi:10.7554/elife.90254).
Read counts are not given, so values of variants with three or more changes are uncertain.

B1: OR4K15 (parent)
chain: GUUAACGGUCAUAGGCCAUGGAAACUAGGAGCACCAUUUCGCUGCCAGUGAAGAAAUGAACAAAGAAAAUCUGGGCCAGGCAGGCAUCAAAAGAAAUAGUCUUGCGCUCAACCAGAAAGUCUGUAAUCAUUUUAAGGGUA

Variants of: B1
Assay: self-cleavage, relative activity (ratio to wild type); higher = more cleavage; in vitro, sequencing; the parent is a self-cleaving ribozyme

Row | Variant | self-cleavage
1 | GUUAACGGUCAUAGGCCAUGGAAACUAGGAGCACCAUUCCGCUGCCAGUGAGGAAAUGUACAAAGAAAAUCUGGGCCAGGCAGGCACCAAAAGGAAUAGUCUUGCGCUCAACCAGAAAGUCUGUAAUCAUUUUAAGGGUA [U39C A52G A59U U87C A94G] | 0.52
2 | GUUAACGGUCAUAGGCCAUGGAAACUAGGAGCACCAUUCCGCUGCCAGUGAGGAAAUGAUCAAAGAAAAUCUGGGCCAGGCAGGCAUCAAAAGAAAUAGUCUUGCGCUCAACCAGAAAGUCUGUAAUCAUUUUAAGGGUA [U39C A52G A60U] | 1.27
3 | GUUAACGGUCAUAGGCCAUGGAAACUAGGAGCACCAUUCCGCUGCCAGUGAGGAAAUGAACAGAGAAAAUCUGGGCCAGGCAGGCAUCAAAAGAAAUAGUCUUGCGCUCAACCAGAAAGUCUGUAAUCAUUUUAAGGGUA [U39C A52G A63G] | 1.81
4 | GUUAACGGUCAUAGGCCAUGGAAACUAGGAGCACCAUUCCGCUGCCAGUGAGGAAAUGAACAAAGAAAAUCUGGGCCUGGCAGGCAUCAAAAGAAAUAGUCUCGCGCUCAACCAGAAAGUCUGUAAUCAUUUUAAGGGUA [U39C A52G A78U U103C] | 0.14
5 | GUUAACGGUCAUAGGCCAUGGAAACUAGGAGCACCAUUCCGCUGCCAGUGAGGAAAUGAACAAAGAAAAUCUGGGCCAGGCAGGCAUCAAAUGAAAUAGUCUUGCGCUCAACCAGAAAGUCUGUAAUCAUUUUAAGGGUA [U39C A52G A92U] | 0.84
6 | GUUAACGGUCAUAGGCCAUGGAAACUAGGAGCACCAUUCCGCUGCCAGUGAGGAAAUGAACAAAGAAAAUCUGGGCCAGGCAGGCAUCAAAAGAAAUAGUCUUGCGCUCAGCCAGAAAGUCUGUAAUCAUUUUAAGGGUA [U39C A52G A111G] | 0.02
7 | GUUAACGGUCAUAGGCCAUGGAAACUAGGAGCACCAUUCCGCUGCCAGUGAGGAAAUGAACAAAGAAAAUCUGGGCCAGGCAGGCAUCAAAAGAAAUAGUCUUGCGCUCAACCAGAAAGUCUGUAAUCAUUUUGAGGGUA [U39C A52G A134G] | 1.34
8 | GUUAACGGUCAUAGGCCAUGGAAACUAGGAGCACCAUUCCGCUGCCAGUGAGGAAAUGAACAAAGAAAAUCCGGGCCAGGCAGGCAUCAAAAGAAAUAGUCUUGCGCUCAACCAGAAAGUCUGUAAUCAUUUUAAGGGUA [U39C A52G U72C] | 0.34
9 | GUUAACGGUCAUAGGCCAUGGAAACUAGGAGCACCAUUCCGCUGCCAGUGAGGAAAUGAACAAAGAAAAUCUGGGCCAGGCAGGCAUCAAAAGAAACUGUCAUGCGCUCAACCAGAAAGUCUGUAAUCAUUUUAAGGGUA [U39C A52G U97C A98U U102A] | 0.43
10 | GUUAACGGUCAUAGGCCAUGGAAACUAGGAGCACCAUUCCGCUGCCAGUGAGGAAAUGAACAAAGAAAAUCUGGGCCAGGCAGGCAUCAAAAGAAAUAGUCUCGCGCUCAGCCAGAAAGUCUGUAAUCAUUUUAAGGGUA [U39C A52G U103C A111G] | 0.03
11 | GUUAACGGUCAUAGGCCAUGGAAACUAGGAGCACCAUUCCGCUGCCAGUGAGGAAAUGAACAAAGAAAAUCUGGGCCAGGCAGGCAUCAAAAGAAAUAGUCUUGCGCUCAACCAGAAAGUCUGUAAUCACUUUAAGGGUA [U39C A52G U130C] | 1.12
12 | GUUAACGGUCAUAGGCCAUGGAAACUAGGAGCACCAUUCCGCUGCCAGUGAUGAAAUGAACAAAGAAAAUCUGGGCCAGGCAGGCAUCAAAAGAAAUAGCCUUGCGCUCAACCAGAAUGUCUGUAAUCAUUUUAAGGGUA [U39C A52U U100C A118U] | 2.52
13 | GUUAACGGUCAUAGGCCAUGGAAACUAGGAGCACCAUUCCGCUGCCAGUGAAGGAAUGGACAAAGAGAACCUGGGCCAGGCAGGCAUCAAAAGAAAUAGUCUUGCGCUCAACCAGAAAGUCUGUAAUCAUUUUAAGGGUA [U39C A54G A59G A67G U70C] | 0.34
14 | GUUAACGGUCAUAGGCCAUGGAAACUAGGAGCACCAUUCCGCUGCCAGUGAAGGAAUGAACAAAGAAAAUCUGGGCCAGGCAGGCAUCAAAAGAAAUAGUCUUGCGCUCAACCAGAAAGUCUGUAAUCGUUUUAAGGGUA [U39C A54G A129G] | 1.04
15 | GUUAACGGUCAUAGGCCAUGGAAACUAGGAGCACCAUUCCGCUGCCAGUGAAGAGAUGAACCAAGAAAAUCUGGGCCAGGCAGGCAUCAAAAGAAAUAGUCUUGCGCUCAACCAGAAAGUCUGUAAUCAUUUUAAGGGUA [U39C A55G A62C] | 0.5
16 | GUUAACGGUCAUAGGCCAUGGAAACUAGGAGCACCAUUCCGCUGCCAGUGAAGAGAUGAACAAAGAAGAUCUGGGCCAGGCAGGCAUCAAAAGACAUAGUCUUGCGCUCAACCAGAAAGUCUGUAGUCAUCUUAAGGGUA [U39C A55G A68G A95C A126G U131C] | 0.84
17 | GUUAACGGUCAUAGGCCAUGGAAACUAGGAGCACCAUUCCGCUGCCAGUGAAGAGAUGAACAAAGAAAAUCUGGGCCAGGCAGGCAUCAAGAGAAAUAGUCUUGCGCUCAGCCAGAAAGUCUGUAAUCAUUUUAAGGGUA [U39C A55G A91G A111G] | 0.03
18 | GUUAACGGUCAUAGGCCAUGGAAACUAGGAGCACCAUUCCGCUGCCAGUGAAGAGAUGAACAAAGAAAAUCUGGGCCAGGCAGGCAUCAAAAGAAAUAGUCUUGCGCUCAACCUGAAAGUCUGUAAUCAUUUUAAGGGUA [U39C A55G A114U] | 0.02
19 | GUUAACGGUCAUAGGCCAUGGAAACUAGGAGCACCAUUCCGCUGCCAGUGAAGAGAUGAACAAAGAAAAUCCGGGCCAGGCAGGCAUCAAAAGAAAUAGUCUUGCGCUCAACCAGAAAGUCUGUAAUCAUUUUAAGGGUA [U39C A55G U72C] | 0.16
20 | GUUAACGGUCAUAGGCCAUGGAAACUAGGAGCACCAUUCCGCUGCCAGUGAAGAAAUGGACAAAGAAAAUCUGGGCCAGGCAGGCAUCAAAAGAAAUAGUCUUGCGCUCAACCAGAAGGUCUGUAAUCAUUUUAAGGGUA [U39C A59G A118G] | 0.45
21 | GUUAACGGUCAUAGGCCAUGGAAACUAGGAGCACCAUUCCGCUGCCAGUGAAGAAAUGGACAAAGAAAACCUGGGCCAGGCAGGCAUCAAAAGAAAUAGUCUUGCGCUCAACCAGAAAGUCUGUAAUCAUUUUAAGGGUA [U39C A59G U70C] | 0.24

Row | Variant | self-cleavage
22 | GUUAACGGUCAUAGGCCAUGGAAACUAGGAGCACCAUUCCGCUGCCAGUGAAGAAAUGUACAAAGAAAAUCUGGGCCAGGCAGGCGUCAAAAGGAAUAGUCUUGCGCUCAACCAGAAAGUCUGUAAUCAUUUUAAGGGUA [U39C A59U A86G A94G] | 1.55
23 | GUUAACGGUCAUAGGCCAUGGAAACUAGGAGCACCAUUCCGCUGCCAGUGAAGAAAUGAGCAAGGAAAGUCUGGGCCAGGCAGGCAUCAAAAGAAAUAGUCUUGCGCUCGACCAGAAAGUCUGUAAUCAUUUUAAGGGUA [U39C A60G A64G A69G A110G] | 0.07
24 | GUUAACGGUCAUAGGCCAUGGAAACUAGGAGCACCAUUCCGCUGCCAGUGAAGAAAUGAGCAAAGAAAAUCUGGGCCAGGCAGGCAUCAAAAGAAGUAGUCUUGAGCUCAACCAGAAAGUCUGUAAUCAUUUUAAGGGUA [U39C A60G A96G C105A] | 0.05
25 | GUUAACGGUCAUAGGCCAUGGAAACUAGGAGCACCAUUCCGCUGCCAGUGAAGAAAUGAUCAAAGAAAAUCUGGACCAGGCAGGCACCAAAAGAAAUAGUCAUGCGCUCAACCAGAAAGUCUGUAAACAUUUUAAGGGUA [U39C A60U G75A U87C U102A U127A] | 0.06
26 | GUUAACGGUCAUAGGCCAUGGAAACUAGGAGCACCAUUCCGCUGCCAGUGAAGAAAUGAACUAAGAAAGUCUGGGCCAGGCAGGCAUCAAAAGAAAUAGCCUUGCGCUCAACCAGAAAGUCUGUAAUCAUUUUAAGGGUA [U39C A62U A69G U100C] | 2.84
27 | GUUAACGGUCAUAGGCCAUGGAAACUAGGAGCACCAUUCCGCUGCCAGUGAAGAAAUGAACUAAGAAAAUCUGGGCCAGGCAGGCAUCAAAAGAAAUAGUCUUGCGCUCAACCAGAAAGUCUGUAAUCAUUUUAAGGGUG [U39C A62U A140G] | 2.43
28 | GUUAACGGUCAUAGGCCAUGGAAACUAGGAGCACCAUUCCGCUGCCAGUGAAGAAAUGAACAGAGAAAAUCUGGCCCAGGCAGGCACCAAAAGAAAUAGUCUUGCGCUCAGCCAGAAAGUCUGUAAUCAUUUUAAGGGUA [U39C A63G G75C U87C A111G] | 0.02
29 | GUUAACGGUCAUAGGCCAUGGAAACUAGGAGCACCAUUCCGCUGCCAGUGAAGAAAUGAACAAGGAAGAUCUGGGCCAGGCAGGCAUCAAAAGAAAUAGUCUUGCGCUCAACCAGAAAGUCUGUAAUCAUUUUAAGGGUA [U39C A64G A68G] | 0.87
30 | GUUAACGGUCAUAGGCCAUGGAAACUAGGAGCACCAUUCCGCUGCCAGUGAAGAAAUGAACAAGGAAAAUCUGGGCCAGGCAGGCAUCAAAAGUAGUAGUCUUGCGCCCAACCAGAAAGUCUGUAAUCAUUUUAAGGGUA [U39C A64G A94U A96G U108C] | 0.02
31 | GUUAACGGUCAUAGGCCAUGGAAACUAGGAGCACCAUUCCGCUGCCAGUGAAGAAAUGAACAAGGAAAAUCUGGGCCAGGCAGGCAUCAAAAGAAAUAGUCUUGCGCUCAACCAGAAAGUCUGUAAUCGUUUUAAGGGUA [U39C A64G A129G] | 1.21
32 | GUUAACGGUCAUAGGCCAUGGAAACUAGGAGCACCAUUCCGCUGCCAGUGAAGAAAUGAACAAGGAAAAUCUGGGCCAGGCAGGCAUCAAAAGAAAUAGUCUUGCGCUCAACCAGAAAGUCCGUAAUCAUUUUAAGGGUA [U39C A64G U122C] | 1.68
33 | GUUAACGGUCAUAGGCCAUGGAAACUAGGAGCACCAUUCCGCUGCCAGUGAAGAAAUGAACAAAGAGAAUCUGGGCCUGGCAGGCAUCAAAAGGAGUAGUCUUGCGCUCAACCAGAAAGUCUGUAAUCAUUCUAAGGGUA [U39C A67G A78U A94G A96G U132C] | 0.2
34 | GUUAACGGUCAUAGGCCAUGGAAACUAGGAGCACCAUUCCGCUGCCAGUGAAGAAAUGAACAAAGAGAAUCUGGGCCAGGCAGGCAUCAAAAGAAAUAGUCUUGAGCUCAACCAGAGAGUCUGUAAUCAUUUUAAGGGUA [U39C A67G C105A A117G] | 0.03
35 | GUUAACGGUCAUAGGCCAUGGAAACUAGGAGCACCAUUCCGCUGCCAGUGAAGAAAUGAACAAAGAGAAUCUGGGCCAGGCAGGCAUCAAAAGAAAUAGUCUUGCGCUCAACCAGAAAGUCUGUAAUCAUUUUAAAGGUA [U39C A67G G136A] | 1
36 | GUUAACGGUCAUAGGCCAUGGAAACUAGGAGCACCAUUCCGCUGCCAGUGAAGAAAUGAACAAAGAAAGUCUGGGCCAGGCAGGCAUCAAAAGAGAUAGUCUUGCGCUCAACCAGAAAGUCUGUAAUCAUUUUAAGGGUA [U39C A69G A95G] | 1.75
37 | GUUAACGGUCAUAGGCCAUGGAAACUAGGAGCACCAUUCCGCUGCCAGUGAAGAAAUGAACAAAGAAAAUCUGGGCCUGGCAGGCACCAAAAGAAAUAGUCUUGCGCUCAACCAGAAAGUCUGUAAUCAUUUUAAGGGUA [U39C A78U U87C] | 0.15
38 | GUUAACGGUCAUAGGCCAUGGAAACUAGGAGCACCAUUCCGCUGCCAGUGAAGAAAUGAACAAAGAAAAUCUGGGCCAGGCGGGCAUCUAAAGAAAUAGUCUUGCGCUCAGCCAGAAGGUCUGUAAUCAUUUUAAGGGUA [U39C A82G A89U A111G A118G] | 0
39 | GUUAACGGUCAUAGGCCAUGGAAACUAGGAGCACCAUUCCGCUGCCAGUGAAGAAAUGAACAAAGAAAAUCUGGGCCAGGCGGGCAUCAAAAGAAAUAGUCUUGCGCCCAACCAGAAAGUCUGUAAUCAUUUUAAGGGUA [U39C A82G U108C] | 0.02
40 | GUUAACGGUCAUAGGCCAUGGAAACUAGGAGCACCAUUCCGCUGCCAGUGAAGAAAUGAACAAAGAAAAUCUGGGCCAGGCAGGCAUCGAAAGGAAUAGUCUUGCGCUCAACCAGAAAGUCCGUAUUCAUUUUAAGGGUA [U39C A89G A94G U122C A126U] | 0.76
41 | GUUAACGGUCAUAGGCCAUGGAAACUAGGAGCACCAUUCCGCUGCCAGUGAAGAAAUGAACAAAGAAAAUCUGGGCCAGGCAGGCAUCGAAAGAAAUAGUCUUGCGCUCAACCAGAGAGUCUGUAGUCAUUUUAAGGGUA [U39C A89G A117G A126G] | 1.42
